We go through 24 sequences from the supplement of paper PMC11417369.

The list shows a part of the results.

This assay relates to PF3D7_0420300 AP2 domain 1 (GST-tagged). Kind of assay: gcPBM binding intensity (ln(normalized median fluorescence intensity)); higher = stronger DNA binding. Put shortly: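 Binding intensity values are the highest Masliner-normalised natural-log median intensity among replicate spots of either probe orientation. The binding step lasted 1 h in 1× PBS with 1% milk, 0.2 mg/ml BSA, 0.5% salmon testes DNA and 0.03% Triton X-100, using GST-tagged P. falciparum DNA-binding domains expressed in E. coli on an Agilent 4 × 180k array of primer-extended double-stranded 36-bp intergenic genomic probes plus negative controls. Alexa488 anti-GST antibody and a 488 nm scan detected bound protein.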
As to “ATGGAAATTTTATCATGTACATATACCGTTGAATAA [XGTACX_site5420]”, the “gcPBM binding intensity (ln)” value turned out to be 9.08. “AATAAAAAAATTAAAATTAAAAAATTAAAACTTAAA [CACACA_negctrl_site987]”: the “gcPBM binding intensity (ln)” value worked out at 8.85.

Take “TACCTATAAAAGTACACACACACACGGATATAAATA [CACACA_site6569]”: the “gcPBM binding intensity (ln)” value stood at 10.3. As to “ACTATAAATATATACACATGCGCACACACAAGTGGG [TGCATGCA_site432]”, the “gcPBM binding intensity (ln)” value was 9.68.

With “ATTGATCTTTATTGTTGTACATTAAACGTTAATTTT [XGTACX_site1788]”, the “gcPBM binding intensity (ln)” value was 9.47. Under “ATATCAATTTTTGGTGGTACGTAGGAAGTTTCAGAA [XGTACX_site6881]” stands 9.27; under “ACTTTAAAAAGATTCACACAAAATATATAAAAATAT [CACACA_site5334]”, 9.08.

As for “TTATGCAAAAATAAATCAATATGTTGATATGTAAAT [GTGCAC_negctrl_site128]”, the “gcPBM binding intensity (ln)” value was determined as 9.28.

Take “ATATAATTTAATTTCTGTACATAAGAGAAAAAACAA [XGTACX_site4865]”: the “gcPBM binding intensity (ln)” value was 9.23. Turning to “AACATATACTGTTTATGTACACATTGTTATATTAAT [XGTACX_site4276]”, the “gcPBM binding intensity (ln)” value was found to be 9.48.

On to “TACATTTTATGCATTTGTACACAAATAAATAAATAA [XGTACX_site2652]”, for which the “gcPBM binding intensity (ln)” value is 8.86.

Regarding “TTTTTTTTTTTTTATACACACATTAAAATAAAAAAG [CACACA_site3946]”, the “gcPBM binding intensity (ln)” value turned out to be 8.87. Take “CTCTTCCTTAATTTTTGTACTTAAAATTTTTTTTTT [XGTACX_site1628]”: the “gcPBM binding intensity (ln)” value turned out to be 9.38. Under “AAAGAAAAAAAAAAAACACACAAAAAAAATCAAAAT [CACACA_site2871]” stands 9.94. Under “ATATATCTATATAGAAATGTATATATATATATGTGT [TGCATGCA_negctrl_site349]” stands 9.27. As for “TATTATTCTACTATTATATTCTATATTATTTATAGT [CACACA_negctrl_site499]”, the “gcPBM binding intensity (ln)” value was determined as 9.37. For “TAAAATCAATGTTCTTGTACTTAAAATGTTTGTTCT [XGTACX_site5490]”, the “gcPBM binding intensity (ln)” value was 9.32. As to “AGTATAAAATTTGGTTGTACATTTTTAAAAAAATTA [XGTACX_site7519]”, the “gcPBM binding intensity (ln)” value stood at 8.94. In the case of “AAAATTAAATTATTTACACACAATATTAAAATATTT [CACACA_site3244]”, the “gcPBM binding intensity (ln)” value worked out at 9.27. The result for “AAATAAATTTGACCAGTGCAATAACTTTGTATACCT [GTGCAC_site9446]” reads 9.26; that for “TATAATATAAAAAAAAGTACACGAATTTTTTTTCAG [XGTACX_site6105]”, 9.04; that for “ACAATATATTTTTGAGCATGCGCAAAAGAGAATGCA [TGCATGCA_site566]”, 9.26.

For “ATCCAAAAGAAAAATAGTACAGATATGAACAATATG [XGTACX_site6944]”, the “gcPBM binding intensity (ln)” value stood at 9.62. As to “AACCCCAAGCCGTACTGTACATATATTTTTATTTTA [XGTACX_site142]”, the “gcPBM binding intensity (ln)” value stood at 9.67.
